Results as given in the GPR68 mutational scans of Howard et al. (2025).
Scores with a large standard error are left out. The source holds two more conditions with little spread; they are left out. In variant names, del marks residues removed and ins residues inserted between the two positions. For part of these data: How much ogerin was present is not stated here.

B1: GPR68, Q15743 (parent)
chain: MGNITADNSSMSCTIDHTIHQTLAPVVYVTVLVVGFPANCLSLYFGYLQIKARNELGVYLCNLTVADLFYICSLPFWLQYVLQHDNWSHGDLSCQVCGILLYENIYISVGFLCCISVDRYLAVAHPFRFHQFRTLKAAVGVSVVIWAKELLTSIYFLMHEEVIEDENQHRVCFEHYPIQAWQRAINYYRFLVGFLFPICLLLASYQGILRAVRRSHGTQKSRKDQIQRLVLSTVVIFLACFLPYHVLLLVRSVWEASCDFAKGVFNAYHFSLLLTSFNCVADPVLYCFVSETTHRDLARLRGACLAFLTCSRTGRAREAYPLGAPEASGKSGAQGEEPELLTKLHPAFQTPNSPGSGGFPTGRLA

Legend:
[1] = variants of: B1; test: cAMP reporter score (Enrich2 score, wild type = 0); higher = more signal; HEK293T, FACS bins
[2] = variants of: B1; test: surface expression score (Enrich2 score, wild type = 0); higher = more signal; HEK293T, FACS bins

Variant | cAMP reporter score ([1]; pH 5.5) | cAMP reporter score ([1]; pH 6, modulator: ogerin) | cAMP reporter score ([1]; pH 6.5, modulator: ogerin) | surface expression score [2] | cAMP reporter score ([1]; pH 6)
K148_E149insGS | -0.408 | -2.03 | -0.589 | -1.91 | 
V141del | -0.857 | -0.674 | -0.431 |  | 
F156_L157insGSG | -1.39 | -2.15 | -1.11 | -1.28 | -0.934
V144_I145insG | -0.585 | -2.4 | -1.43 | -2.07 | 0.094
L150del | -0.704 | -1.21 | -0.691 | 0.4 | -0.279
E161_V162del | -1.25 | -0.536 | -0.673 | 2.24 | -0.516
V141T | -0.158 | -0.561 | -1.31 | -0.821 | -1.21
V141M | 0.797 | -0.95 | 0.677 | -0.424 | 
V141P | -2.03 | -1.36 | -0.237 | -1.82 | -1.87
V141Q | -0.974 | -0.405 | -1.46 | -2.35 | -1.73
V141N | -0.098 | -0.309 | -0.765 | -1.85 | -0.633
V141Y | -1.44 | -1.93 | -0.895 |  | 
V141S | -0.109 | -0.97 | -0.172 |  | 
V141W | -0.74 | -1.01 | -1.9 |  | -1.18
L157_M158insGS | -1.12 | -1.29 | -1.02 | -0.455 | -1.24
L157N | 0.334 | -2.18 | -0.417 | 1.84 | 0.61
L157F | 0.89 | 0.136 | -0.118 | 0.328 | 1.79
L157M | -1.56 | -1.68 | -1.03 | -2.69 | -0.759
L157V | -1.39 | 0.569 | -1.64 | -0.325 | -0.219
L157R | -0.415 | -1.64 | -1.27 | -0.934 | -0.151
L157A | -1.41 | -1.28 | -0.576 | -0.743 | -1.14
L157T | -1.61 | -0.769 | -0.729 | -1.04 | -1.05
L157D | 0.866 |  | -1.03 | -1.64 | 

Variant | cAMP reporter score ([1]; pH 5.5) | cAMP reporter score ([1]; pH 6, modulator: ogerin) | cAMP reporter score ([1]; pH 6.5, modulator: ogerin) | surface expression score [2] | cAMP reporter score ([1]; pH 6)
L157K | -1.61 |  |  | -0.358 | 1.42
L157P | -0.482 | -0.672 |  | -0.287 | 
L157Y | -0.13 | 0.699 | -0.65 | 1.33 | -1.4
L157W | 0.464 | 0.854 | -1.11 | 1.57 | 0.931
L157E | 0.463 |  |  | -0.205 | 
L157C | -1.03 | -0.595 | -0.583 | 1.02 | -0.994
L157Q | -0.824 | -1.44 | -0.714 | -0.927 | 
L157S | -1.08 | -1.64 | -1.1 | -0.983 | -0.811
L157I | 0.473 | 0.87 | 0.849 | 0.766 | 0.549
L157H | 0.902 |  | -0.861 |  | -0.385
A147del | -1.04 | -1.85 | -0.747 | -1.85 | -0.656
L157_M158insG | -0.43 | -0.955 | -1.46 | -1.07 | -0.256
I145_W146insG | -1.53 | -2.07 | -0.868 | -2.33 | -0.553
V141_S142insGSG | -2.24 | -1.91 | -1.05 | -2.19 | -0.79
E149del | -0.366 | -1.64 | -1.2 | -2.22 | -0.086
S153_I154insGS | -1.27 | -1.03 | -1.21 | 0.202 | -1.31
E161_V162insGSG | -0.734 | -1.71 | -1.05 | 0.181 | 
S142_V143del | -2.14 |  | -0.748 | -3.13 | 
T152_S153insGSG | -1.1 | -2.27 | -1.37 | -1.75 | 
H159_E160insG | 0.293 | -0.274 | -0.389 | 0.59 | 0.318
E160_E161insGS | -0.801 | -0.899 | 0.105 | -0.141 | 0.071
V141_V143del | -1.43 | -1.07 | -0.215 | -2.64 | -0.875
V141_S142insG | -1.16 | -0.15 | 0.098 | -1.86 | -0.727

Variant | cAMP reporter score ([1]; pH 5.5) | cAMP reporter score ([1]; pH 6, modulator: ogerin) | cAMP reporter score ([1]; pH 6.5, modulator: ogerin) | surface expression score [2] | cAMP reporter score ([1]; pH 6)
W146_A147insGSG | -0.924 |  | -0.741 |  | -1.09
T152del | 0.224 | -0.774 | -0.412 | 1.98 | -0.27
L150_L151insGS | -2.21 |  | -1.42 |  | -0.912
W146_A147insGS | -2 | -1.25 | -1.39 | -2.15 | -0.668
L150Q | -1.14 | -1.84 | -0.599 | -2.65 | 
L150A | 0.116 | -1.11 | -1.44 | -0.305 | -1.08
L150G | 0.016 | -1.32 | -0.981 | -0.654 | -1.04
L150N | -1.08 |  |  |  | 
L150P | 0.265 |  | -1.66 | -2.4 | 
L150T | -0.803 | -0.974 | -1.12 | -1.67 | -0.48
L150E | -0.566 | -1.3 |  | -2.71 | 1.19
L150Y | 0.452 | -0.601 |  | -1.15 | 
L150C | -0.072 | -0.59 | -0.619 |  | -0.547
L150K | -2.65 | -1.15 | -1.19 |  | -2.02
L150V | 0.878 | 0.606 | 0.119 | 1.3 | 0.94
L150F | -0.178 | -0.605 | -0.665 | -0.754 | -0.341
L150D | -1.54 | -2.28 | -0.997 | -2.14 | -0.854
L150I | 0.467 | 0.462 | -0.779 | 0.846 | 0.389
L150S | -0.35 | -0.394 | -1.14 | -0.964 | 
L150W | 3.92 |  | -0.437 |  | 
H159_E160del | -0.977 | -1.3 | -1.36 | 0.665 | -1.06
Y155del | -1.57 |  | -1.23 | 0.003 | -0.601
